Experimental data reported in the supplement of paper PMC8285479.
Where a name gives a salt, the structure may show the parent alone. ± gives the standard deviation of the averaged measurements. Whole data set: some 1,900 compounds, median “normalised cell viability (NPI; 0 = phenylarsine oxide control, 1 = DMSO control)” near 1, cut for the lowest 2% near 0.039. The list shows a part of the results.

Test system: NCI-H1944
Experiment: normalised cell viability (NPI; 0 = phenylarsine oxide control, 1 = DMSO control) (fraction of DMSO control); NCI-H1944 is a non-small cell lung cancer line; higher = more viable cells (less compound toxicity)
Conditions: 6 days
[1] = glucocorticoid arm: hydrocortisone 2.75 uM co-treatment, compound 1 µM
[2] = glucocorticoid arm: hydrocortisone 2.75 uM co-treatment, compound 5 µM
[3] = glucocorticoid arm: hydrocortisone 2.75 uM pre-treated 2 days and continued, compound 1 µM
[4] = glucocorticoid arm: hydrocortisone 2.75 uM pre-treated 2 days and continued, compound 5 µM
[5] = glucocorticoid arm: vehicle, compound 1 µM
[6] = glucocorticoid arm: vehicle, compound 5 µM
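Note: CTB read-out in 384-well plates, mean of triplicate wells, normalised per plate against 1 µM phenylarsine oxide and 0.1% DMSO, compounds added 24 h after seeding.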

| Compound | normalised cell viability [1] | normalised cell viability [2] | normalised cell viability [3] | normalised cell viability [4] | normalised cell viability [5] | normalised cell viability [6] |
| --- | --- | --- | --- | --- | --- | --- |
| Cc1cc(Cl)ccc1OCCCC(=O)NO [Droxinostat] | 0.983 ± 0.015 | 0.976 ± 0.02 | 0.97 ± 0.011 | 0.9983 ± 0.0029 | 0.986 ± 0.013 | 0.981 ± 0.0062 |
| CN(C)CCOc1ccc(-c2nc(-c3ccncc3)c(-c3ccc4c(c3)CC/C4=N\O)[nH]2)cc1 | 1.103 ± 0.0058 | 1.16 ± 0.032 | 1.07 ± 0.011 | 1.11 ± 0.021 | 1.013 ± 0.0058 | 1 ± 0.05 |
| C[C@H](Cc1cc2c(c(C(N)=O)c1)N(CCCO)CC2)NCCOc1ccccc1OCC(F)(F)F [Silodosin] | 1.01 ± 0.011 | 1.01 ± 0.022 | 1.01 ± 0.011 | 1.01 ± 0.026 | 1.003 ± 0.0061 | 0.9977 ± 0.004 |
| CNCCCC12CCC(c3ccccc31)c1ccccc12 [Maprotiline HCl] | 1.01 ± 0.016 | 0.987 ± 0.016 | 1.02 ± 0.015 | 0.99 ± 0.026 | 1.002 ± 0.0076 | 0.968 ± 0.01 |
| CNCCCC12CCC(c3ccccc31)c1ccccc12 [Maprotiline hydrochloride] | 1 ± 0.0087 | 1.04 ± 0.029 | 1.017 ± 0.0058 | 1.06 ± 0.084 | 0.99 ± 0.0066 | 0.9997 ± 0.0091 |
| O=C1Cc2c([nH]c3ccc(Br)cc23)-c2ccccc2N1 [Kenpaullone] | 1.03 ± 0.011 | 1.1 ± 0.025 | 1.03 ± 0.01 | 1.11 ± 0.1 | 0.99 ± 0.0076 | 1 ± 0.014 |
| Nc1nc(Cl)nc2c1ncn2[C@@H]1O[C@H](COP(=O)(O)OP(=O)(O)OP(=O)(O)O)[C@H](O)C1O (stereo partly drawn) [2-Chloroadenosine triphosphate tetrasodium] | 0.992 ± 0.0076 | 0.818 ± 0.041 | 0.988 ± 0.018 | 0.917 ± 0.019 | 0.987 ± 0.0044 | 0.981 ± 0.0056 |
| CN(C)Cc1cccc(N=C(c2ccccc2)c2c(O)[nH]c3cc(C(=O)N(C)C)ccc23)c1 | 0.961 ± 0.02 | 0.785 ± 0.024 | 0.9773 ± 0.0065 | 0.832 ± 0.048 | 0.987 ± 0.012 | 0.938 ± 0.03 |
| NC[C@@H](O)c1ccc(O)c(O)c1 [L(-)-Norepinephrine bitartrate] | 1 ± 0.018 | 0.971 ± 0.011 | 1 ± 0.021 | 0.968 ± 0.0085 | 0.98 ± 0.017 | 0.9767 ± 0.0011 |
| Cc1cc(Cn2cnc3c2C[C@@H](C(=O)O)N(C(=O)C(c2ccccc2)c2ccccc2)C3)ccc1N | 1.03 ± 0.01 | 1.01 ± 0.022 | 1.023 ± 0.0058 | 1.01 ± 0.014 | 1.027 ± 0.0058 | 1.02 |
| CCCCCCC(=O)OC1CC(C)(C)NC(C)(C)C1 [TMPH hydrochloride] | 1.006 ± 0.0075 | 1.01 ± 0.018 | 1.007 ± 0.0058 | 1.03 ± 0.1 | 0.9897 ± 0.0059 | 1 ± 0.018 |
| Oc1cc2c(cc1O)CN(C(=S)NCCc1ccc(Cl)cc1)CCC2 [Capsazepine] | 0.994 ± 0.0056 | 1.02 ± 0.021 | 0.99 ± 0.012 | 0.994 ± 0.015 | 0.9793 ± 0.0032 | 0.993 ± 0.01 |
| CCCCCCCC/C=C\CCCCCCCC(=O)NCCO [N-Oleoylethanolamine] | 1.013 ± 0.0058 | 1.03 ± 0.026 | 1.01 ± 0.013 | 1.05 ± 0.073 | 1.006 ± 0.0069 | 1.02 ± 0.011 |
| CNCC[C@@H](Oc1ccc(C(F)(F)F)cc1)c1ccccc1 [R-(-)-Fluoxetine hydrochloride] | 0.999 ± 0.011 | 0.92 ± 0.014 | 1.013 ± 0.0058 | 1.02 ± 0.029 | 0.995 ± 0.0036 | 0.9947 ± 0.005 |
| CCN(CC)C(=O)/C(C#N)=C/c1cc(O)c(O)c([N+](=O)[O-])c1 [Entacapone] | 0.976 ± 0.019 | 0.992 ± 0.017 | 0.975 ± 0.014 | 0.9927 ± 0.0087 | 0.993 ± 0.016 | 0.998 ± 0.0035 |
| C[C@]12C=CC(=O)C=C1CC[C@H]1[C@@H]3C[C@@H](O)[C@](O)(C(=O)CO)[C@@]3(C)C[C@H](O)[C@@]12F [Triamcinolone] | 1.007 ± 0.0058 | 1.02 ± 0.015 | 0.885 ± 0.2 | 1.03 ± 0.01 | 0.954 ± 0.022 | 0.851 ± 0.015 |
| COc1cccc2cc(-c3nc([C@H]4CC[C@H](C(=O)O)CC4)n4ncnc(N)c34)[nH]c12 | 0.734 ± 0.025 | 0.472 ± 0.006 | 0.7097 ± 0.0042 | 0.638 ± 0.093 | 0.799 ± 0.035 | 0.411 ± 0.054 |

| Compound | normalised cell viability [1] | normalised cell viability [2] | normalised cell viability [3] | normalised cell viability [4] | normalised cell viability [5] | normalised cell viability [6] |
| --- | --- | --- | --- | --- | --- | --- |
| NC1CCN(O)C1=O (racemic) | 0.983 ± 0.011 | 0.999 ± 0.011 | 0.9857 ± 0.0051 | 0.984 ± 0.023 | 0.985 ± 0.013 | 0.98733 ± 0.00058 |
| CCN(CC)CCOC(=O)c1ccc(N)cc1 [Procaine hydrochloride] | 0.992 ± 0.0046 | 0.9923 ± 0.0067 | 1.01 ± 0.027 | 0.973 ± 0.012 | 0.9793 ± 0.0051 | 0.9873 ± 0.0047 |
| Cn1ccnc1 [1-Methylimidazole] | 0.989 ± 0.0096 | 1.01 ± 0.031 | 1 ± 0.0089 | 1.04 ± 0.1 | 1.003 ± 0.0064 | 1.01 ± 0.01 |
| O=c1[nH]c2cc(C(F)(F)F)ccc2n1-c1cc(C(F)(F)F)ccc1O | 1.01 | 1.03 ± 0.017 | 1.01 | 1.07 ± 0.085 | 0.992 ± 0.003 | 1 ± 0.018 |
| N[C@@H](CCCC(=O)O)C(=O)O [L-2-aminoadipic acid] | 0.9947 ± 0.0055 | 0.991 ± 0.015 | 0.997 ± 0.013 | 0.97 ± 0.018 | 0.979 ± 0.014 | 0.9823 ± 0.0067 |
| O=c1cc(-c2ccccc2)[nH]c2nc(Cl)ccc12 [7-Chloro-4-hydroxy-2-phenyl-1,8-naphthyridine] | 1.003 ± 0.0063 | 1.02 | 1.002 ± 0.0068 | 1.01 ± 0.014 | 0.995 ± 0.005 | 0.776 ± 0.41 |
| O=c1[nH]c(=O)c2nc3ccccc3nc2[nH]1 [Alloxazine] | 0.998 ± 0.011 | 1.03 ± 0.015 | 1.01 ± 0.011 | 1.025 ± 0.0071 | 0.9967 ± 0.004 | 1.01 |
| N#C/C(=C\c1ccc(O)c(O)c1)C(=O)NCCc1ccccc1 [Tyrphostin AG 698] | 1.017 ± 0.0058 | 1.02 ± 0.015 | 0.876 ± 0.25 | 0.994 ± 0.014 | 1.033 ± 0.0058 | 1.033 ± 0.0058 |
| CC(=O)O[C@H]1C[C@@]2(C)[C@@H](C[C@@H](O)[C@H]3[C@@]4(C)CC[C@@H](O)[C@@H](C)[C@@H]4CC[C@@]32C)/C1=C(\CCC=C(C)C)C(=O)O [Fusidic acid sodium salt] | 0.997 ± 0.013 | 0.985 ± 0.018 | 0.999 ± 0.021 | 0.996 ± 0.03 | 0.991 ± 0.0095 | 0.993 ± 0.0046 |
| CC(=O)N[C@@H](CS)C(=O)O [N-Acetyl-L-Cysteine] | 1.003 ± 0.0064 | 1 ± 0.017 | 1 ± 0.016 | 0.961 ± 0.024 | 0.9913 ± 0.0075 | 0.986 ± 0.0027 |
| C[C@]1(c2nc3c(C(N)=O)cccc3[nH]2)CCCN1 [Veliparib (ABT-888)] | 0.983 ± 0.011 | 0.972 ± 0.012 | 0.979 ± 0.01 | 0.975 ± 0.014 | 0.996 ± 0.014 | 0.984 ± 0.0089 |
| NC(=O)OCC(COC(N)=O)c1ccccc1 [Felbamate] | 1.013 ± 0.0058 | 0.989 ± 0.016 | 1.017 ± 0.0058 | 1 ± 0.033 | 1.013 ± 0.0058 | 1.01 ± 0.01 |
| COc1ccccc1NC(=O)Nc1nc(-c2cccnc2)nc2ccccc12 | 1.023 ± 0.0058 | 1.03 ± 0.017 | 1.05 ± 0.047 | 1.03 ± 0.015 | 1.03 | 1.037 ± 0.0058 |
| COCc1nc2c([nH]1)c(=O)n(C)c(=O)n2CC(C)C [8-Methoxymethyl-3-isobutyl-1-methylxanthine] | 0.999 ± 0.001 | 0.997 ± 0.029 | 1 ± 0.016 | 1.03 ± 0.075 | 1.005 ± 0.0087 | 1.01 ± 0.01 |
| COC(=O)Nc1ccc(-c2nc(N3CCOCC3)c3cnn(C4CCN(C(=O)OC)CC4)c3n2)cc1 | 0.505 ± 0.038 | 0.753 ± 0.013 | 0.563 ± 0.029 | 0.769 ± 0.067 | 0.476 ± 0.02 | 0.924 ± 0.015 |
| CCCCCCCCCC[Si](C)(C)CCC(=O)NC(Cc1ccc(C)cc1)c1ccccc1 (stereo not drawn) [Sandoz 58-035] | 0.992 ± 0.016 | 0.9963 ± 0.0055 | 0.985 ± 0.0056 | 0.982 ± 0.0014 | 0.9753 ± 0.0038 | 0.9807 ± 0.0021 |
